Measured values from PubChem BioAssay (NCATS).
Records with an inconclusive call do not appear. The call rests on the fitted dose curve; in most records, active means well fitted inhibition curve with a large enough effect; inconclusive means small, poorly fitted or top-dose-only effect; inactive means no such curve, though single readings can be large or run the other way. The source holds more than one record for some entries. The list is limited to them. There may be further records. Results that share an entry are repeats (runs, samples, wells, individuals or studies).

Assay: Confirmatory screen NINDS Rhodamine qHTS for Zika virus inhibitors (AID 1347161); further: nearly all actives have a fitted effect of over 60% in size
Conditions: purified enzyme assay, Rhodamine110 substrate fluorescence, 15 min
Outline: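 Purified NS2B-NS3 protease with the NS2B hydrophilic domain joined by a flexible linker (25 nM) in 10 mM Tris-HCl pH 8.0, 0.01% Tween 20, preincubated 15 min at RT with compound; Rhodamine110 peptide substrate 1.5 µM; fluorescence change over 15 min; 4-parameter Hill fit.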
Potency means the concentration at half of the fitted maximal effect.

With `C=C1c2cccc(O)c2C(O)=C2C(=O)[C@]3(O)C(O)=C(C(N)=O)C(=O)[C@@H](N(C)C)[C@@H]3[C@@H](O)[C@H]12` the Potency was “active: 1.56, 55.5, 49.4, 62.2 µM [separate samples]”.
